We go through one molecule from patent publication US20180312565A1 (Affibody, published 2018).

Experiment [1] concerns the target T1, rhesus PD-L1/Fc Chimera (Sino Biological Inc., cat. no. 90251-C02H) (rhesus monkey, UniProt F6PJN1 19-239).
T1 construct: bought; also called RhPD-L1; rhesus monkey PD-L1; not shown: Fc part of the bought Fc chimera, not described
In words: SPR ranking, 5 and 50 nM. Here is the method: (§1) The Z variants were also tested for binding against the sequence-related proteins hPD-L2, hB7-H3 and hB7-H4. The Biacore analyses were performed essentially as described in Example 3, however a flow rate of 30 μl/min was used. […] In the specificity test, i.e. the binding analysis against hPD-L2, hB7-H3 and hB7-H4, the 24 Z variants were injected at a concentration of 500 nM.

The target of experiment [2] is T2, human B7-H3 Fc Chimera (R&D Systems, cat. no. 1027-B3-100) (human, UniProt Q5ZPR3-2 29-245, biotinylated in ELISA).
T2 construct: bought; also called hB7-H3; not shown: Fc part of the bought Fc chimera, not described
T2 sequence (looked up): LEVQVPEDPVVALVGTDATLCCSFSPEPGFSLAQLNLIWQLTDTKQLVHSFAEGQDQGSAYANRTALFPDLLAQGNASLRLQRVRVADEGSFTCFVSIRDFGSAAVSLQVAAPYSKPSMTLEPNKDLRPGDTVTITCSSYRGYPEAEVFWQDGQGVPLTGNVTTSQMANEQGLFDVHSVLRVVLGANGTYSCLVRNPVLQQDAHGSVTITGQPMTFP
In words: SPR (Biacore 2000), hB7-H3 immobilized on CM5 chip, Z variant injected at 50, 5 and 0.5 nM. As to the method:
(§2) One flow cell surface on each chip was activated and deactivated for use as blank during analyte injections. In the kinetic experiment, HBS-EP was used as running buffer and the flow rate was 50 μl/min. The analytes, i.e. the Z variants, were each diluted in HBS-EP buffer within a concentration range of 1000 to 0.01 nM and injected for 5 min, followed by dissociation in running buffer for 15-25 min. After dissociation, the surfaces were regenerated with one or two injections of 0.1% SDS. Kinetic constants were calculated from the sensorgrams using the Langmuir 1:1 model of BiaEvaluation software 4.1 (GE Healthcare).
For orientation: Surface plasmon resonance follows binding to a sensor surface in real time, without labels.

The target in experiment [3] is T3, PD-L1 on PD-L1 expressing cells (IFNg-stimulated THP-1 cells; MDA-MB-231 cells) (UniProt Q9NZQ7 19-290, limits assumed).
T3 construct: whole, on cells
As to the kind of experiment: FACS, IFNg-stimulated THP-1 cells, 10 µg/ml, normalized to Z13091. As to the method: Cells incubated with buffer alone were used as negative controls. […] Data from 10,000 cells were obtained using a FACS Calibur ([…]) and the data was analyzed using Flowing software 2.5.0 (Turku University). Mean fluorescence intensity (MFI) was used as a read out of binding capacity.
A general note: In flow cytometry, cells or beads pass a laser one at a time.

The target of experiment [4] is T4, human PD-L1 Fc Chimera (R&D Systems, cat. no. 156-B7-100) (human, UniProt Q9NZQ7 19-239, biotinylated with Sulfo-NHS-LC-Biotin in ELISA and AlphaLISA; not biotinylated in SPR).
T4 construct: bought; also called hPD-L1; biotinylated hPD-L1; not shown: Fc part of the bought Fc chimera, not described
As to the kind of experiment: AlphaLISA, blocks hPD-L1 binding to hPD-1. As to the method:
Exception 2: hPD-1-coated Acceptor beads were added to a final concentration of 10 μg/ml and incubated for 50 min.
On the technique in general: Alpha assays give light when donor and acceptor beads are brought close together.

Experiment [5] deals with T4, human PD-L1 Fc Chimera (R&D Systems, …). As to the kind of experiment: SPR, hPD-L1 immobilized. Here is the method: as §2
The target in experiment [6] is T5, human PD-L2 Fc Chimera (R&D Systems, cat. no. 1224-PL-100) (human, UniProt Q9BQ51 20-219, biotinylated in ELISA).
T5 construct: bought; also called hPD-L2; not shown: Fc part of the bought Fc chimera, not described
T5 sequence (looked up): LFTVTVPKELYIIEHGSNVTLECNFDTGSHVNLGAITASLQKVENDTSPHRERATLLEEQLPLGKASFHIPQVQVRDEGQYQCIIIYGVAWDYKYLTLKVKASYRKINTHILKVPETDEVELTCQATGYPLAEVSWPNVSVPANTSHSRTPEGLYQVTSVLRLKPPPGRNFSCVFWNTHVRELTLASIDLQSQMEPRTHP
As to the kind of experiment: SPR (Biacore 2000), hPD-L2 immobilized on CM5 chip, Z variant injected at 50, 5 and 0.5 nM. As to the method:
as §2

For experiment [7], the target named is T4, human PD-L1 Fc Chimera (R&D Systems, …). In words: AlphaLISA, blocks hPD-L1 binding to hPD-1. Here is the method:
Finally, streptavidin coated Donor beads (Perkin Elmer, cat. no. 6772002) were added to a final concentration of 40 μg/ml and incubated for 30 min. All incubations were performed at RT in the dark. The plate was analyzed in the EnSpire instrument and the IC50 values were calculated using GraphPad Prism 5.
The source holds these as a separate data set.

For experiment [8] the target is unchanged. In words: SPR, 1.67-135 nM. As to the method:
as §1

For experiment [9], the target named is T1, rhesus PD-L1/Fc Chimera (Sino …). In words: SPR, 1.67-135 nM. As to the method: as §1
Experiment [10] has as its target T6, human B7-H4 (R&D Systems, cat. no. 6576-B7-50) (human, UniProt Q7Z7D3 29-258, biotinylated in ELISA).
T6 construct: bought; also called hB7-H4
T6 sequence (looked up): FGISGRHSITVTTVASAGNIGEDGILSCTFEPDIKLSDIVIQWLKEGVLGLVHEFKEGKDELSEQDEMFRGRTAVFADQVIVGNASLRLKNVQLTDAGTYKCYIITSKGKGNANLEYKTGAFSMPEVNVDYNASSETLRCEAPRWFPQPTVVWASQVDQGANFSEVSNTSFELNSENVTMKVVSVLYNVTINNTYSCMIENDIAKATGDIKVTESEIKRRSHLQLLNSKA
In words: SPR (Biacore 2000), hB7-H4 immobilized on CM5 chip, Z variant injected at 50, 5 and 0.5 nM. As to the method: as §2

The target in experiment [11] is T7, mouse PD-L1 Fc Chimera (R&D Systems, cat. no. 1019-B7) (mouse, UniProt Q9EP73 19-238).
T7 construct: bought; also called mPD-L1; not shown: Fc part of the bought Fc chimera, not described
In words: SPR. As to the method: as §2

Read-outs that look alike come from different tables or passages of the source.

T1 sequence (F6PJN1 entry or part of it C02H C02H): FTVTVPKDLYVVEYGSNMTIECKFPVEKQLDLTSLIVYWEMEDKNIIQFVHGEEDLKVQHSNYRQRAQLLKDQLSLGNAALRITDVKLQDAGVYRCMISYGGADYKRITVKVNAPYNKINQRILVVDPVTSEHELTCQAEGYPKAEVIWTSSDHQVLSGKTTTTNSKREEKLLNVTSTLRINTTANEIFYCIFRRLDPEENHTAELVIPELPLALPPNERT
T7 sequence (Q9EP73 19-238, change not shown): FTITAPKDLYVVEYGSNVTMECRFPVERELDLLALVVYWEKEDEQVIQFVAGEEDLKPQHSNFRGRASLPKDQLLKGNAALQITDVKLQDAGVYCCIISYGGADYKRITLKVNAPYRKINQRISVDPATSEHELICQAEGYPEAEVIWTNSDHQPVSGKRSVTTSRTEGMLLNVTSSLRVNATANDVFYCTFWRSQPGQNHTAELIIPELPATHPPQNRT

B1: His6-Z13091 (designed binder)
chain: MGSSHHHHHHLQVDAKYAKERNNAAFEILRLPNLTNGQHWAFIWKLADDPSQSSELLSEAKKLNDSQAPKVD
For orientation: Kd means the free concentration of one partner at which half of the binding sites on the other are occupied at equilibrium, for simple one-to-one binding. Lower therefore signals a tighter complex. The IC50 is the point on the concentration scale where inhibition reaches its midpoint. A low value points to inhibition by little substance. Take B1: the Kd in experiment [1] was around 5.2 nM; in experiment [5], 0.46 nM; in experiment [8] it was 0.63 nM; in [9] it was 0.54 nM. Further, the binding result in experiment [2], in experiment [6], in experiment [10] and in experiment [11] was “no binding (tested: 50 nM)” throughout. Besides, the “MFI (normalized)” value in experiment [3] was determined as 1. Moreover, the half-maximal inhibitory concentration (IC50) worked out at 1.1 nM in [4] and 6.9 nM in experiment [7].
